# Screen size: about 110,000 compounds; about 230 (0.21%) showed an effect of 50% or more. This is one part of the list.
# Target: DPAP1 (Plasmodium falciparum, UniProt Q8IIJ9)
# Experiment: primary screen, percent inhibition; read by cleavage of a fluorogenic dipeptide substrate; higher = more effect of the substance
# Parameters: species or system P. falciparum D10 trophozoite lysates; single well
# 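Note: 30 min substrate incubation versus DMSO and 10 µM JCP410 controls.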
# Sequence of DPAP1 (Q8IIJ9 whole entry, looked up): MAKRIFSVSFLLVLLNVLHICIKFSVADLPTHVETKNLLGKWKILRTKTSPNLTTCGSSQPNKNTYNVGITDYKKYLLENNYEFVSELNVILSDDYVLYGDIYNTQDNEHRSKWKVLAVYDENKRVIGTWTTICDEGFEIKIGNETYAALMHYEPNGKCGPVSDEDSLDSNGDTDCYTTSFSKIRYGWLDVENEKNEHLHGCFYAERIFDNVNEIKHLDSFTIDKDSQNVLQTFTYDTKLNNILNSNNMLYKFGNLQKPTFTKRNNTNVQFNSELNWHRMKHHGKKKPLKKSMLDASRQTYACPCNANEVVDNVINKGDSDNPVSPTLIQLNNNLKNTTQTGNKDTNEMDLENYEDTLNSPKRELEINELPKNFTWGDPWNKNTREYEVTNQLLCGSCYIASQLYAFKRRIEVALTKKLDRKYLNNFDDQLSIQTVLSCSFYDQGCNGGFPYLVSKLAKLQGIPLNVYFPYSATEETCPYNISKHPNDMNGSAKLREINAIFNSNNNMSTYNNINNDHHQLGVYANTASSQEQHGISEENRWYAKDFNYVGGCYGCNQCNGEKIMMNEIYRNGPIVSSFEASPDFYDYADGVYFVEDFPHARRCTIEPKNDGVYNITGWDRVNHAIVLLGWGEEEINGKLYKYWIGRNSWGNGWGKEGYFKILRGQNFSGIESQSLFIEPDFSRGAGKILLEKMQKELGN
row,Compound,% Inhibition @ 10 uM [%]
1,Cc1ccc(Oc2nc3ccccc3n3c(C)nnc23)c(C)c1,-3.41
2,Cc1cccc(C(=O)ON=C2CCSCC2)c1,-1.4
3,CCCC(C)C(=O)Nc1ccccc1C(N)=O (stereo not shown),-12.3
4,N#CCNC(=O)[C@H](CSCc1ccc(Cl)c(Cl)c1)NC(=O)c1ccccc1,-0.214
5,COCCNC(=O)c1nn(C)c2c1CS(=O)(=O)c1ccccc1-2,-0.205
6,CSc1ncccc1C(=O)NC1CCCc2ccccc21 (stereo not shown),3.47
7,NC(=O)CN1C(C(=O)c2ccccc2)=C(O)c2ccccc2S1(=O)=O,-1.17
8,Cc1nc2c(-c3ccccc3)c(C)nn2c(C)c1CCC(=O)NCCCc1ccccc1,2.93
9,COc1cc(OC)cc(C(=O)Nc2ccc3nc(-c4cccc(F)c4)oc3c2)c1,-4.69
10,CCCc1c(C)nc2ccc(C(=O)OCC)cc2c1Cl,-9.13
11,COc1cc2c(cc1OC)C(C)N(S(=O)(=O)c1ccc3nc(O)ccc3c1)CC2 (stereo not shown),3
12,CCOc1ccc(-c2nc(C#N)c(NCc3ccc(C)cc3)o2)cc1,3.63
13,Cc1ccccc1OCC(=O)Nc1ccc(NC(=O)COc2ccccc2C)cc1,-1.84
14,O=C1NC(=O)C(CCc2ccncc2)(c2ccccc2)C(=O)N1,-2.6
15,COC(=O)\C(=C/C=C/C=C/N(C)C)C(C)=O,11.6
16,COc1cccc(C(=O)N2CCN(C(=O)C(c3ccccc3)c3ccccc3)CC2)c1,-1.6
17,O=C(Nc1ncc(-c2ccccc2)s1)c1ccccc1,7.99
18,CC(=O)c1cc2c(cc1NC(=O)C1CCCCC1C(=O)O)OCO2 (stereo not shown),2.67
19,Cc1ccn2c(=O)c(C(=O)NCc3ccc4c(c3)OCO4)cnc2c1,-3.44
20,O=c1oc(-c2ccc(Br)cc2)nc2sc3c(c12)CCCC3,-2.36
21,COc1ccc2c(c1)cc1c(=O)n(CC(=O)NCCN3CCOCC3)nc(C)n12,1.68
22,Cc1ccc2oc(=O)n(Cc3ccccc3OC(C)C)c2c1,3.92
23,Cc1sc2ncn(CC(=O)NC3CCCCCC3)c(=O)c2c1S(=O)(=O)N1CCOCC1,-1.2
24,CC(=O)Nc1ccc(NC(=O)c2ccc(F)cc2)cc1,-7.06
25,COCC(=O)Nc1nc2nc(C)c(Cl)c(O)n2n1,-3.08

row,Compound,% Inhibition @ 10 uM [%]
1,O=C(NCc1ccc2c(c1)OCO2)C1C2C=CC3(CN(Cc4ccccc4Cl)C(=O)C13)O2 (stereo not shown),1.07
2,Cc1cc(NS(=O)(=O)c2ccc(NC(=O)COc3c(C)cccc3C)cc2)no1,-1.44
3,O=S(=O)(Nc1ccccc1CO)c1ccccc1,1.89
4,Cc1cc(C)c2c(CC(=O)N(Cc3ccco3)C3CCS(=O)(=O)C3)coc2c1 (stereo not shown),-2.4
5,CC1CCN(C(=O)CCSCCC(=O)N2CCC(C)CC2)CC1,-0.95
6,CCOc1ccc(NC(=O)c2ccc(C)o2)cc1,-1.02
7,O=C(NCc1cccnc1)C1CCCN(c2nnc(N3CCCC3=O)s2)C1 (stereo not shown),0.413
8,CCc1n[nH]c(SCC(=O)c2ccc(O)c(O)c2)n1,10.1
9,COC(=O)C1=C(C)NC(=O)/C1=C\c1cc2c(cc1Br)OCO2,0.484
10,N#Cc1ccc(S(=O)(=O)N2CCC(N3CCCCC3)CC2)cc1,4.18
11,C=CCc1cccc2cc(C(=O)NCc3ccc4c(c3)OCO4)c(=O)oc12,4.61
12,CC(=O)c1cccc(NC(=O)CN(Cc2ccc(C)cc2)S(=O)(=O)c2ccc(C)cc2)c1,0.795
13,CCCCOc1ccc(CC(=N)N)cc1Cl,3.25
14,CCOC(=O)c1cc(S(=O)(=O)N2CCC(Cc3ccccc3)CC2)cn1C,3.92
15,CC(C)C(=O)NC(c1ccc(Cl)cc1)c1ccc2cccnc2c1O (stereo not shown),-8.88
16,CC1CCc2c(sc(NC(=O)COc3ccc(Cl)cc3Cl)c2C(N)=O)C1 (stereo not shown),-1.36
17,O=S(=O)(Cc1ccccc1)Nc1ccc(F)cc1,-1.96
18,Fc1ccc(N2CCN(Cc3ccc(C(F)(F)F)cc3)CC2)cc1,-5.41
19,CCO/C(O)=C1/C(C)=Nc2ncnn2C1c1ccccc1OC(F)F (stereo not shown),1.73
20,Cc1ccc(C)n1-c1nnc(N2CCC(C(=O)NC(C)c3ccc4c(c3)OCCO4)CC2)s1 (stereo not shown),-5.89
21,COc1ccccc1N1CCN(C(=O)Cc2ccc(Br)cc2)CC1,2.44
22,O=C(NCc1ccc2c(c1)OCO2)C1CC(=O)N(CCc2ccccc2)C1 (stereo not shown),-1.79
23,CSc1ncc(C(=O)NCc2cccc(Cl)c2)c(C(F)(F)F)n1,-2.48
24,O=C(COc1ccc(Br)cc1Cl)Nc1ccc(S(=O)(=O)N2CCCC2)cc1,-1.95
25,C=CCOC(=O)c1sc(N2C(=O)c3oc4ccccc4c(=O)c3C2c2cccs2)nc1C (stereo not shown),0.189

row,Compound,% Inhibition @ 10 uM [%]
1,CC12CN3CC(C)(CN(C1)C3c1cc(Br)ccc1O)C2=O (stereo not shown),-4.35
2,Cc1ccc(O)c(C2=NN3C(C2)c2ccccc2OC3c2cccs2)c1 (stereo not shown),0.0719
3,Cc1cc(C)nc(NC(=N)N2CCC(C)CC2)n1,2.36
4,COc1ccc(C(=O)N2CCN(c3ccccc3OC)CC2)cc1,1.9
5,CCOC(=O)c1c(C)nc2n(CCN(CC)CC)c3ccccc3n12,1
6,CN1CCN(CCCNC(=O)C2CCN(S(=O)(=O)N3CCC4(CC3)OCCO4)CC2)CC1,2.18
7,CCN(CC)S(=O)(=O)c1ccc(NC(=O)COc2ccc(Cl)cc2Cl)cc1,-4.86
8,CC1(C)CC(=O)C2=C(C1)N(CCc1ccccc1)C(=O)C2(NC(=O)c1ccc(F)cc1)C(F)(F)F (stereo not shown),4.05
9,FC(F)(F)c1cc(-c2ccco2)nc(NCCc2ccccc2)n1,-0.503
10,O=C(Nc1nnc(S(=O)(=O)N2CCOCC2)s1)c1ccccc1,-1.72
11,COc1cccc(C(=O)Nc2nnc(S(=O)(=O)N3CCCCC3)s2)c1,-7.29
12,O=C(NCCc1ccccc1)C(Cc1ccccc1)N1C(=O)c2ccccc2C1=O (stereo not shown),-4.06
13,COc1ccc(C)cc1NC(=O)c1cnn(C)c1,-6.41
14,COc1cc(N2C(=O)c3ccccc3C2=O)ccc1-n1nc(C)cc1C,-7.5
15,c1ccc(-c2csc3nc4ccccc4n23)cc1,-2.8
16,O=C(Nc1cccc(Cl)c1Cl)[C@@H]1C[C@@H]1c1ccccc1,-3.71
17,CCCCNC(=O)CS(=O)(=O)Cc1nc(-c2ccccc2Cl)oc1C,-4.69
18,CCOC(=O)c1cc(NC(=O)N2CCN(CC)CC2)c(C)nc1C,-4.19
19,Cc1nonc1OCC(C)(COc1nonc1C)NC(=O)c1ccccc1,1.38
20,COc1ccc(C(=O)NC(c2ccccc2)c2ccccc2)c(OC)n1,-5.03
21,CC1CCN(C(=O)Cn2cc(/C=C(\C#N)C(=O)NC3CC3)c3ccccc32)CC1,-8.85
22,Cc1ccc(C2=NC(=O)/C(=C/c3cc4c(cc3Br)OCO4)S2)cc1,0.884
23,COc1ccc(CC(=O)N2CCN(Cc3noc(CCC(=O)N(C)C4CCCCC4)n3)CC2)cc1,5.61
24,Cc1ccc(C)c(-c2csc(Nc3ccc(Cl)cc3)n2)c1,-5.65
25,Cc1ccccc1C(=O)Nc1ccccc1C(N)=O,-5.7

row,Compound,% Inhibition @ 10 uM [%]
1,Cc1ccc(CNC(=O)C(C)n2nc(C)c3c(C)n(-c4ccccc4)nc3c2=O)o1 (stereo not shown),-0.665
2,CCOC(=O)N1CCN(C(=O)C2CC(c3cc(OC)c(OC)c(OC)c3)=NO2)CC1 (stereo not shown),-0.431
3,CC(C)NC(=O)CCN1C(=O)c2ccccc2C1=O,-5.49
4,CS(=O)(=O)N1CCN(c2ccc([N+](=O)[O-])cc2)CC1,-4.43
5,CCOC(=O)c1conc1-c1c[nH]c2ccccc12,-9.1
6,Cc1ccccc1CNC1CCCCC1,-6.92
7,CSC1=C(C#N)C(c2ccc(Br)cc2)CC(=O)N1 (stereo not shown),2.58
8,CCOc1ccc(C(=O)C2=C(O)C(=O)N(c3nnc(C)s3)C2c2ccccc2F)cc1 (stereo not shown),-1.25
9,Cc1c(C(=O)NCCc2ccc(S(N)(=O)=O)cc2)sc2nc(-c3ccccc3)cn12,1.55
10,Cc1ccc(OCC(=O)N(C(C)C)C(C)C)cc1C,0.13
11,CCC(C)C(C(=O)O)N1C(=O)NC2NC(=O)NC21 (stereo not shown),13.5
12,CCCn1c2ccccc2c2cnn(CC(=O)NCCN(Cc3ccco3)C(C)CC)c(=O)c21 (stereo not shown),5.92
13,Cc1ccc(CNS(=O)(=O)c2cc(-c3cc(C)no3)ccc2C)cc1,-7.06
14,COCc1[nH]nc2c1C(c1ccc(OC)c(OC)c1)C(C#N)=C(N)O2 (stereo not shown),-2.64
15,CCN1CCN(Cc2ccc([N+](=O)[O-])o2)CC1,-5.57
16,Cc1cccc(OCCSc2nc(-c3ccccc3F)nc3cc(=O)[nH]n23)c1,2.82
17,O=C(NCc1ccccc1Cl)c1cc2c(=O)oc3ccccc3c2s1,-1.51
18,Cc1cccc(C)c1NC(=O)CSc1nc2ccc(N)cc2s1,4.08
19,Cc1ccc(S(=O)(=O)Cc2nc(-c3ccc(C(=O)NCC4CCCO4)cc3)oc2C)cc1 (stereo not shown),-6.31
20,O=C(Nc1ccc(Cl)cc1C(=O)O)c1ccc(N2C(=O)c3ccccc3C2=O)cc1,19.3
21,CCOC(=O)N1CCN(C(=O)c2ccc(-c3ccccc3)cc2)CC1,-2.65
22,C=C(C)Cn1c(COc2cccc(OC)c2)nc2ccccc21,-1.15
23,COc1ccc(-c2noc(CSc3nnc(C)n3-c3ccc(C)c(C)c3)n2)cc1,-4.02
24,COc1ccc(Cl)cc1C(=O)Nc1sc2c(c1C(N)=O)CCC2,-0.996
25,Fc1ccccc1-c1nnc(-c2ccccc2Cl)o1,-4.3
